Variants at the background level are over-represented here.
B1: tRNA (parent)
chain: CUCUCGGUAGCCAAGUUGGUUUAAGGCGCAAGACUUUAAUUUAUCACUACGAAAUCUUGAGAUCGGGCGUUCGACUCGCCCCCGGGAGAUUUUUUCCUCGAGCAA

Variants of: B1
Assay: nonsense suppression (GFP-seq) (ratio to wild type); higher = more function; SUP4oc tRNA, yeast GFP reporter sort-seq
Summary of the method: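 Nonsense suppression (GFPSEQ) is the median GFP/RFP ratio of each sorting bin, weighted by the variant's estimated share of cells in that bin and expressed relative to the unmutated parent tRNA. Yeast strains carried genome-integrated variants of an ochre-suppressor tRNA from a library with ~3% random mutations, plus a galactose-driven GFP ochre reporter and RFP, and were grown in raffinose/galactose medium containing 80 mg/L adenine. Cells were sorted into GFP/RFP bins, each bin was Illumina-sequenced (phred ≥30), and variants were kept only with ≥100 reads and ≥30 cells.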

Variant | nonsense suppression
CUCUCGGUAGCUAAGAUGGUUUAAGGCGCAAGACUUUAAUUUAUCACUACGAAAUCUCGAGAUCGGGCGUUCGACUCGCCCCCGGGAGAUUUUUUCCUCGAGCAA | ≤ 0.026
CUCUCGGUAGCUAAGCUGGUUUUAGGCGCAAGACUUUAAUUUAUCACUACGAAAUCUUGAGAUCGGGCGUUCGACUGGCCUCCGGGAGAUUUUUUCCUCGAGCAA | ≤ 0.026
CUCUCGGUAGCUAAGUGGUUUUAAGGCGCACGACUUUAAUUUAUCACUACGAAAUCUUGAGAUCGGGCGUUCGACGCGCCCCCGGGAGAUUUUUUCCUCGAGCAA | ≤ 0.026
CUCUCGGUAGCUAAGUUGGAUGUAGGCGCAAGACUUUAAUUUAUCACUACGAAAUCUUGAGAUCGGGCGUUCGACUCGCCCCCGGGAGAUUUUUUCCUCGAGCAA | ≤ 0.026
CUCUCGGUAGCUAAGUUGGGUUAAGGCGCAAGACUUUAAUUUAUCACUACGAAAUCUUGAGAUCGGGCGUUCGACUCGCCCCCGGGAGAUUUUUUCCUCGAGCAA | 0.455
CUCUCGGUAGCUAAGUUGGGUUAGGGCGCAAGACUUUAAUUUAUCACUACGAAAUCUUGAGAUCGGGCGUUCGACUCGCCCCCGGGAGAUUUUUUCCUCGAGCAA | ≤ 0.026
CUCUCGGUAGCUAAGUUGGUGUAAGGCGCAAGACUUUAAUUUAUCACUACGAAAUCUUGAGAUCGGGCGGUCGACUCGCCCCCGGGAGAUUUUUUCCUCGAGCAA | ≤ 0.026
CUCUCGGUAGCUAAGUUGGUUCAAGGACCAAGACUUUAAUUUAUCACUACGAAAUCUUGAGAUCGGGCGUUCGACUCGCCCCCGGGAGAUUUUUUCCUCGAGCAA | ≤ 0.026
CUCUCGGUAGCUAAGUUGGUUGAAGGCGCAAGACUUUAAUUUAUCACUACGAAAUCCUGAGAUCGGUCGUUCGACUCGCCCCCGGGAGAUUUUUUCCUCGAGCAA | ≤ 0.026
CUCUCGGUAGCUAAGUUGGUUUAAGGCGCAAGACAUUAAUUUAUCACUACGAAAUCUUGCGCUCGGGCGUUCGACUCGCCCUCGGGAGAUUUUUUCCUCGAGCAA | ≤ 0.026
CUCUCGGUAGCUAAGUUGGUUUAAGGCGCAAGACCUUAAUUUAUCACUACGAAAUCUUGAGAUCGGGCGUUCGACUCGCCCCCGGGAGAUUUUUUCCUCGAGCAA | 0.0352
CUCUCGGUAGCUAAGUUGGUUUAAGGCGCAAGACUUUAAUUUAUCACUACGAAAACUUGAGAUCGGGCGUUCGACUCGCCCCCGGGAGAUUUUUUCCUCGAGCAA | ≤ 0.026
CUCUCGGUAGCUAAGUUGGUUUAAGGCGCAAGACUUUAAUUUAUCACUACGAAACCGUGAGAUCGGGCGUUCGACUCGCCCCCGGGAGAUUUUUUCCUCGAGCAA | ≤ 0.026
CUCUCGGUAGCUAAGUUGGUUUAAGGCGCAAGACUUUAAUUUAUCACUACGAAAGCUUGAGAUCGGGCGGUCGACUCGCCCCUGGGAGAUUUUUUCCUCGAGCAA | ≤ 0.026
CUCUCGGUAGCUAAGUUGGUUUAAGGCGCAAGACUUUAAUUUAUCACUACGAAAUCAUGAGAUCGGGCGUUCGACUCGACCCCGGGAGAUUUUUUCCUCGAGCAA | ≤ 0.026
CUCUCGGUAGCUAAGUUGGUUUAAGGCGCAAGACUUUAAUUUAUCACUACGAAAUCUAGAGAUCGGGCGUUCGCCUCCCCCCCGGGAGAUUUUUUCCUCGAGCAA | ≤ 0.026
CUCUCGGUAGCUAAGUUGGUUUAAGGCGCAAGACUUUAAUUUAUCACUACGAAAUCUAGACAUCGGGCGGUCGACUCGCCUCCGGGAGAUUUUUUCCUCGAGCAA | ≤ 0.026
CUCUCGGUAGCUAAGUUGGUUUAAGGCGCAAGACUUUAAUUUAUCACUACGAAAUCUGGAGAUCGGGCGUUCGACUCGCCCCGGGGAGAUUUUUUCCUCGAGCAA | ≤ 0.026
CUCUCGGUAGCUAAGUUGGUUUAAGGCGCAAGACUUUAAUUUAUCACUACGAAAUCUGGACAUCGGGCGUUCGACUCGCCCCCGGGAGCUUUUUUCCUCGAGCAA | ≤ 0.026
CUCUCGGUAGCUAAGUUGGUUUAAGGCGCAAGACUUUAAUUUAUCACUACGAAAUCUUGAGACCGGGCGUUCGACUCACCCCCGGGAGAUUUUUUCCUCGAGCAA | ≤ 0.026
CUCUCGGUAGCUAAGUUGGUUUAAGGCGCAAGACUUUAAUUUAUCACUACGAAAUCUUGAGACCGGGCGUUCGACACGCCCCCGGGAGAUUUUUUCCUCGAGCAA | ≤ 0.026
CUCUCGGUAGCUAAGUUGGUUUAAGGCGCAAGACUUUAAUUUAUCACUACGAAAUCUUGAGACCGGGCGUUCGACGCGCCCCCGGGAGAUUUUUUCCUCGAGCAA | ≤ 0.026
CUCUCGGUAGCUAAGUUGGUUUAAGGCGCAAGACUUUAAUUUAUCACUACGAAAUCUUGAGAGCGGGCGUUCGACUCGCCCCCGGGAGAUUUUUUCCUCGAGCAA | 0.121
CUCUCGGUAGCUAAGUUGGUUUAAGGCGCAAGACUUUAAUUUAUCACUACGAAAUCUUGAGAUCGGGCGAUCGACUCGCCCCCGGGAGAUUUUUUCCUCGAGCAA | 0.048
CUCUCGGUAGCUAAGUUGGUUUAAGGCGCAAGACUUUAAUUUAUCACUACGAAAUCUUGAGAUCGGGCGUUCGACACGCCCCCGGGAGAUUUUUUCCUCGAGCAA | 0.244
CUCUCGGUAGCCCAGUUGGUUUAAGGCGCAAGACUUUAAUUUAUCACUACGAAAUCUUGAGAUCGGGCGUUCGACUCGCCCCCGGGAGAUUUUUUCCUCGAGCAA | 1.13
CUCUCGGUAGCCCCGUUGGUUUAAGGCGCAAGACUUUAAUUUAUCACUACGAAAUCUUAAGAUCGGCCGUUCGACUCGCCCCCGGGAGAUUUUUUCCUCGAGCAA | ≤ 0.026

— the RNAGym collection of RNA variant scans (doi:10.1101/gad.245936.114)
